This is one part of the list.

The experiment addresses T1, OsWOX13 (Oryza sativa, UniProt Q5QMM3 1-267).
T1 sequence: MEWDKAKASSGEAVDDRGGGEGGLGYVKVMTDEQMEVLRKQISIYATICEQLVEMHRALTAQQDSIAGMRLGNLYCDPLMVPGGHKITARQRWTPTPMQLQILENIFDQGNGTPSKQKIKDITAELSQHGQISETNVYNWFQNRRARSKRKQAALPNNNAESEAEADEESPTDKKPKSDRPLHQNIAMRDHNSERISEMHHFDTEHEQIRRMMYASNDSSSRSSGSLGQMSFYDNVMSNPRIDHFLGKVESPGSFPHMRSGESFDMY
Kind of experiment: protein-binding microarray (RPBM); PBS, 2% BSA, 51.3 ng/ul salmon testes DNA, 50 uM zinc acetate, 200 nM TF, 25 C, 1 h; high values mean tight binding. Conditions: protein: recombinant; tags: N-terminal polyhistidine and DsRed monomer fusion (pET32a); label: CyDye5-dUTP incorporated in the synthesized complementary strand; 3' TTTTT single-stranded linker to array surface; dsDNA, one strand shown. The gist of the method: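 An Axon 4000B scanner gave the binding signal as per-feature fluorescence intensity in arbitrary units. This followed washing of a custom Agilent array that had been incubated for 1 h at 25 °C with 200 nM protein in PBS, 2% BSA, salmon testes DNA and 50 µM zinc acetate. The proteins were transcription factors fused at the N-terminus to polyhistidine and DsRed, expressed in E. coli BL21-CodonPlus and purified on Ni–NTA.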
Turning to “CTTTATTTACTACCTCCGTGATTTTGATTCTGCCCATGCACGGAGTCACCTAGTGCAG”, the binding signal is 3910 fluorescence intensity (a.u.).

In the case of “TTTAATCATGATAGAGTTGCTCGAGCAAATGTGGCACACGCGGAGTCACCTAGTGCAG”, the binding signal was 3430 fluorescence intensity (a.u.).

For the sequence “TTAGATATATTGACACATATTTAAAGTATTAAACGTAGTCCGGAGTCACCTAGTGCAG”, the binding signal was 9980 fluorescence intensity (a.u.).

Consider “ATCCATTAGCACATGATTAATTAAGTATCTGCTATTCTTTCGGAGTCACCTAGTGCAG”, for which the binding signal is 17400 fluorescence intensity (a.u.).

As for “AACTAAATTTACAAATACAAGTTTAGTTATATAGGACTGTCGGAGTCACCTAGTGCAG”, the binding signal is 21000 fluorescence intensity (a.u.).

For the sequence “ACAATCAGCATTGATTAGATAGCATTTTCTAAACTACTTGCGGAGTCACCTAGTGCAG”, the binding signal is 20200 fluorescence intensity (a.u.).

Regarding “CAAACTTAAATGATTAAGTAAATTTCACAAAATTACACATCGGAGTCACCTAGTGCAG”, the binding signal was 14300 fluorescence intensity (a.u.).

For the sequence “TTTCTCTCAATCTTAATAGATTTGGCCGGCGTTTCCTTTGCGGAGTCACCTAGTGCAG”, the binding signal is 8120 fluorescence intensity (a.u.).

Consider “TACTCCTGTTGATAGGTATATTGATCTGAATCATCTGGTACGGAGTCACCTAGTGCAG”, for which the binding signal was 3790 fluorescence intensity (a.u.).

“TTTTAATCGAAACTTAATTTCAAGCTGTATCCAAATTTCGCGGAGTCACCTAGTGCAG”: the binding signal was 7150 fluorescence intensity (a.u.).

“CATAACTAATTAGTAACACAAAGAATATTGATTAGATGATCGGAGTCACCTAGTGCAG”: the binding signal is 43100 fluorescence intensity (a.u.).

As to “TAAATGATTTGAAGCTAGTATATAGCTATACTATTAAACTCGGAGTCACCTAGTGCAG”, the binding signal was 12800 fluorescence intensity (a.u.).

With “AATAATTTTAGCTGTGTTGTCTTGGCAGGCGCCGGCGTGTCGGAGTCACCTAGTGCAG”, the binding signal is 4080 fluorescence intensity (a.u.).

With “TATTGATTTGTTCATTTAACCTGATGACTGTCAGAATTCTCGGAGTCACCTAGTGCAG”, the binding signal is 34700 fluorescence intensity (a.u.).

Consider “TGATGTAATAATTACTATAGCTCACTGACGTAGGTTTATTCGGAGTCACCTAGTGCAG”, for which the binding signal was 5620 fluorescence intensity (a.u.).

For “CAAAATTGGAAAATAATTTGGAAAAGTAAATCTCCTCCGACGGAGTCACCTAGTGCAG”, the binding signal was 27000 fluorescence intensity (a.u.).

With “TCTTAAATTGGTACAGTAATACTCTCTCCGTATTCGTATTCGGAGTCACCTAGTGCAG”, the binding signal was 24800 fluorescence intensity (a.u.).

On to “AGCATCCAATCATGTAACCAGCTGCATAATTTACATGTGTCGGAGTCACCTAGTGCAG”, for which the binding signal is 22600 fluorescence intensity (a.u.).

As for “TGGTGGTGGTGGTGGTAGGGTTAGGGGTAGGAGGGGTCTCCGGAGTCACCTAGTGCAG”, the binding signal was 8890 fluorescence intensity (a.u.).

Turning to “ATTATGTCATGTTTGGATTGATCCACCTAGCTTTACACATCGGAGTCACCTAGTGCAG”, the binding signal is 3910 fluorescence intensity (a.u.).

For “CACATCAATCTATCTCCCTTCCTCCTCTCTCTCTCTCACTCGGAGTCACCTAGTGCAG”, the binding signal is 9570 fluorescence intensity (a.u.).

Take “CAGGGATCACACTCTAATCACGGTCATTAATCCCACTCATCGGAGTCACCTAGTGCAG”: the binding signal was 3880 fluorescence intensity (a.u.).

As to “TCTTGATAGCTATTTAGATTGAAGGATCTGATTTCTTTCTCGGAGTCACCTAGTGCAG”, the binding signal was 38200 fluorescence intensity (a.u.).

On to “GTAATAATAATAATAATAAATAAATAAATTGTTGAACTAGCGGAGTCACCTAGTGCAG”, for which the binding signal was 7300 fluorescence intensity (a.u.).

With “TTACTAATTTAGTGATGTATATATAGGCAGTAGGCACATACGGAGTCACCTAGTGCAG”, the binding signal was 13600 fluorescence intensity (a.u.).

“TGATCAATCAAGAAGACGATCGTGCCGATATCATGGCACCCGGAGTCACCTAGTGCAG”: the binding signal was 19700 fluorescence intensity (a.u.).

For “CTTATGCTGATTAATTAGGGCTAATGAGCTATGCATGCAACGGAGTCACCTAGTGCAG”, the binding signal was 33000 fluorescence intensity (a.u.).

On to “GTGAGGGGATTGAGAAGATTGGGAAGATACGCAAAACGAGCGGAGTCACCTAGTGCAG”, for which the binding signal was 16100 fluorescence intensity (a.u.).

For the sequence “TAATAACAAAATAAATTACAGTTTCCGCCTAGAAACTGTGCGGAGTCACCTAGTGCAG”, the binding signal was 3440 fluorescence intensity (a.u.).

With “AACTTTGACAAAATAATTACAGTAGTATGATATTTACTTCCGGAGTCACCTAGTGCAG”, the binding signal is 9130 fluorescence intensity (a.u.).

With “CATTTGATTTTGATTTGATCGATACCATTCCGCTTTCACCCGGAGTCACCTAGTGCAG”, the binding signal was 28300 fluorescence intensity (a.u.).

With “ATGCTAATACTTGACATAATTAGGTAGAGCTCTGAGGAGCCGGAGTCACCTAGTGCAG”, the binding signal is 11900 fluorescence intensity (a.u.).

In the case of “AGAGGATTGATGAATGCAGCTGCAAGCACAGCACGCAGTACGGAGTCACCTAGTGCAG”, the binding signal was 13600 fluorescence intensity (a.u.).

Consider “GATAGATAGATAGATAGAAGATTGCATACTTACTGTATGACGGAGTCACCTAGTGCAG”, for which the binding signal was 25600 fluorescence intensity (a.u.).

Consider “TACCATATTTATGAATGCACTAATTGGTTAACCCGCAAATCGGAGTCACCTAGTGCAG”, for which the binding signal was 12700 fluorescence intensity (a.u.).

“AATAACTGAACAATCAATCGCACGCCATCGAGAAGTAGACCGGAGTCACCTAGTGCAG”: the binding signal was 24000 fluorescence intensity (a.u.).

In the case of “TTGGCAATAATCACACCAATCATATCACAGTTGTCGTTGACGGAGTCACCTAGTGCAG”, the binding signal is 16400 fluorescence intensity (a.u.).

As to “GTATGATTACTATTGGAATTTTATCTTATCTCTACTATTACGGAGTCACCTAGTGCAG”, the binding signal is 29900 fluorescence intensity (a.u.).

As for “TGAAAATTATATGATTATAATCTATTTTGTTTTAATTTATCGGAGTCACCTAGTGCAG”, the binding signal is 24800 fluorescence intensity (a.u.).

In the case of “GTGATTAATAAATAATATACACCTCATATTTAGTGTTGGTCGGAGTCACCTAGTGCAG”, the binding signal was 26100 fluorescence intensity (a.u.).

Turning to “TATATATATATATATATATATATATATATATTTAGATATGCGGAGTCACCTAGTGCAG”, the binding signal was 32800 fluorescence intensity (a.u.).

Turning to “ATAGATTAAACAATAACAGGCTCACTATAATTTATGTTATCGGAGTCACCTAGTGCAG”, the binding signal is 18300 fluorescence intensity (a.u.).
